{"source": "PubChem BioAssay AID492948", "about": "(National Center for Advancing Translational Sciences (NCATS), 2010)", "note": "Inconclusive means that the source gave no clear call. Such entries were picked first, then a sample of the others. No potency is given beside an inconclusive call; the fits are too rough. The source made the active and inactive calls. Calls follow the shape of the dose curve; as a rule, active = well fitted activation curve with a large enough effect; inconclusive = small, poorly fitted or top-dose-only effect; inactive = no such curve, though single readings can be large or run the other way. Potency is read from the fitted curve at half-maximal effect; tags tell the direction and shape of the fitted curve.", "data": [{"assay": "qHTS Assay for Agonists of the Relaxin Receptor RXFP1: V1B Hit Validation;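 also: counter-screen in HEK293 cells expressing V1B rather than RXFP1 for selectivity; nearly all actives have a fitted effect of over 65% in size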;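 as to activation: cAMP accumulation with PDE4 inhibitor Ro 20-1724 present during compound exposure; 0% = buffer alone basal and 100% = 29 nM porcine relaxin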", "settings": "HEK293 V1B cells, cAMP TR-FRET, 30 min; series mostly up to 115 µM; activation: at the top concentration", "procedure,_shortened": "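Cells: HEK293, 2000/well. Cpd 30 min, 37C, 5% CO2, + PDE4 inhibitor Ro 20174. Lyse, HTRF cAMP, 30 min RT. Norm: buffer = 0%, porcine relaxin 29 nM = 100%.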", "values": [{"smiles": "COc1cc(-c2nnc(SCC(=O)N(C)C3CCS(=O)(=O)C3)o2)cc(OC)c1OC", "note": "(stereo unspecified)", "activation": "inactive: 6.32% [at 44.9 µM]"}, {"smiles": "Cn1c2ccccc2c2nnc(SCC(=O)Nc3cccc(C(=O)O)c3)nc21", "Potency": "active: 21.9 µM"}, {"smiles": "COc1ccc(-n2nc(C(=O)NCC(=O)NCCCN3CCOCC3)c3ccccc3c2=O)cc1", "Potency": "inconclusive [activator, partial curve]"}, {"smiles": "CNC(=O)c1ccccc1NC(=O)c1ccco1", "Potency": "inconclusive [activator, partial curve]"}, {"smiles": "Cn1c(=O)c2sccc2n2c(CCCC(=O)N3CCN(c4ccccn4)CC3)nnc12", "Potency": "inconclusive [activator, partial curve]"}, {"smiles": "Cc1ccnc(NS(=O)(=O)c2ccc(N3C(=O)c4ccccc4C3=O)cc2)n1", "Potency": "active: 14.9 µM"}, {"smiles": "O=C(Nc1ccc2c(c1)C(=O)NC2=O)c1ccc2ncsc2c1", "Potency": "inconclusive [activator, partial curve]"}, {"smiles": "Cc1cccc(C(=O)Nc2ccccc2C(=O)NCc2ccco2)c1", "activation": "inactive: -0.448% [at 127 µM]"}, {"smiles": "Cc1ccc(NC(=O)CCc2nnc3ccc(N4CCN(C)CC4)nn23)cc1F", "Potency": "inconclusive [activator, partial curve]"}, {"smiles": "CC(=O)c1c(C)[nH]c(C(=O)OCc2cc(=O)n3cc(Br)ccc3n2)c1C", "Potency": "inconclusive [activator, full curve]"}, {"smiles": "CCn1c(=O)c2sccc2n2c(CCCC(=O)NCc3cccnc3)nnc12", "Potency": "inconclusive [activator, partial curve]"}, {"smiles": "O=C(Nc1ccccc1C(=O)N1CCOCC1)c1ccco1", "activation": "inactive: 0.265% [at 127 µM]"}, {"smiles": "CCC1(C)Cc2c(sc3c2c2ncnn2c2nnc(SCC(=O)NCc4ccco4)n32)CO1", "note": "(stereo unspecified)", "Potency": "active: 13.8 µM"}, {"smiles": "Cc1cccn2c(=O)c3cc(C(=O)NC4CCCC4)c(=N)n(CCCN4CCOCC4)c3nc12", "Potency": "inconclusive [activator, partial curve, poor fit]"}, {"smiles": "O=C(Nc1cc(S(=O)(=O)N2CCOCC2)ccc1N1CCOCC1)c1cn2ccccc2n1", "Potency": "active: 30.9 µM"}, {"smiles": "CN(C)CCCn1c(SCC(=O)Nc2nc(-c3cccc(Br)c3)cs2)nc2ccccc2c1=O", "activation": "inactive: -2.35%"}, {"smiles": "COc1ccc(S(=O)(=O)N(C)C)cc1NC(=O)CSc1nncs1", "Potency": "inconclusive [activator, partial curve]"}, {"smiles": "COC(=O)c1nc2ccc(N3CCOCC3)cc2c(C)c1C(=O)OC", "Potency": "active: 34.6 µM"}, {"smiles": "CC(C(=O)Nc1cccnc1)n1cc([N+](=O)[O-])cn1", "note": "(stereo unspecified)", "Potency": "inconclusive [activator, partial curve]"}, {"smiles": "N#Cc1c2n(c3c(N)ncnc13)CCCCC2", "Potency": "inconclusive [activator, partial curve]"}, {"smiles": "Cc1ccc(CN(C)C(=O)c2ccccc2NC(=O)c2ccccc2)o1", "activation": "inactive: 3.11% [at 127 µM]"}, {"smiles": "O=C(Nc1ncccn1)c1ccc([N+](=O)[O-])o1", "Potency": "inconclusive [activator, partial curve]"}, {"smiles": "O=C(O)c1cccc(CSc2nnc(Cc3ccccc3)o2)c1", "Potency": "inconclusive [activator, partial curve, poor fit]"}, {"smiles": "Cn1c2ccccc2c2nnc(SCCN3CCOCC3)nc21", "Potency": "inconclusive [activator, partial curve]"}, {"smiles": "O=C(NN1C(=O)c2ccccc2NC1c1ccc([N+](=O)[O-])o1)c1ccc([N+](=O)[O-])cc1", "note": "(stereo unspecified)", "Potency": "inconclusive [activator, partial curve]"}, {"smiles": "C=C(C)C(=O)Nc1cccc(C2=NOC3(C2)C[C@@H](C(N)=O)N(C(=O)c2ccc(Cl)cc2)C3)c1", "note": "(stereo partly specified)", "Potency": "inconclusive [activator, partial curve, poor fit]"}]}]}
